According to PubChem BioAssay AID493208 (National Center for Advancing Translational Sciences (NCATS), 2011):
Hit rate of the full screen: of about 44,000 compounds, about 340 (0.77%) were called active. Another 5% or so got no clear call; they are omitted. Calls come from the whole dose curve; as a rule, active = well fitted inhibition curve with a large enough effect; inconclusive = small, poorly fitted or top-dose-only effect; inactive = flat fitted curve, though single readings scatter. This is one part of the list.

Experiment: Acumen qHTS Assay for Inhibitors of the mTORC1 Signaling Pathway in MEF (Tsc2-/-, p53-/-) Cells: Sytravon;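 note: plate controls were DMSO for no effect and rapamycin for full effect; nearly all actives have a fitted effect of over 50% in size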
Conditions: phospho-rpS6 immunofluorescence/PI, 24 h; series mostly up to 38.3 µM; activity change, negative = inhibition: at the top concentration
Method in brief: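 Tsc2-/-, p53-/- mouse embryonic fibroblasts (empty-vector line) exposed to compound 24 hrs at 37 C, fixed, immunostained for phospho-rpS6 and counterstained with propidium iodide. Acumen laser scanning gives % positive cells from Alexa 488/PI ratio, thresholded using 7.5 nM rapamycin; PI count gives viability.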

Activity change, negative = inhibition, inactive:
CCCn1cc(S(=O)(=O)c2cc(C)ccc2C)c(=O)c2cc(F)c(N3CCOCC3)cc21 0.886%
CCc1ccc2occ(CC(=O)Nc3c(C(=O)Nc4ccc(C)cc4)oc4ccccc34)c2c1 -21.9%
CCCNc1ncnc2onc(C)c12 -3.04%
Cc1ccc(C(=O)n2nc(C)c(S(=O)(=O)N3CCOCC3)c2C)cc1 0.141%
Cc1ccc(CSc2nc(-c3cccs3)ccc2C#N)cc1 5.37%
COc1ccc(-n2nc(C(=O)Nc3ccccc3OC)c3c4ccccc4n(C)c3c2=O)cc1Cl -6.16%
COc1cccc(-c2nn(C)c3sc(C(=O)NCCc4ccc(Cl)cc4)cc23)c1 -3.74%
Cc1cc(S(=O)(=O)Nc2ccc(-c3ccc(N4CCCCC4)nn3)cc2)c(C)cc1Cl -19.6%
Cc1nnc(SCc2ccc(Cl)cc2)c2cc3occc3n12 -3.37%
Cc1cccc(N2CCN(c3cc(C)nc4c(-c5ccc(Cl)cc5)c(C)nn34)CC2C)c1 (stereo unspecified) -6.5%
CCOc1ccc(NC(=O)NCCCN2CCN(c3ccc(F)cc3)CC2)cc1 -18.4%
COC(=O)c1nc2n(n1)C(c1cccc(Cl)c1)C(C(=O)Nc1ccccc1OC)=C(C)N2 (stereo unspecified) 6.02%
Cc1cccc(C)c1NC(=O)C(NS(=O)(=O)c1ccc2c(c1)CCC(=O)N2)c1ccccc1 (stereo unspecified) -4.86%
Cc1c2cnn(-c3ccccc3)c(=O)c2c(C)n1CCCC(=O)Nc1cc(F)ccc1F -1.91%
CCN(c1cccc(C)c1)S(=O)(=O)c1nnc(NC(=O)C2CCCCC2)s1 6.87%
O=C(CSC1=Nc2ccccc2C2=NC(CC(=O)NC3CCCCC3)C(=O)N12)Nc1ccc(F)cc1 (stereo unspecified) -3.31%
O=C(CSc1nc2ccccc2nc1Cc1ccc(Cl)cc1)N1CCc2ccccc21 0.256%
CCc1ccc(CNC(=O)CN2C(=O)c3cccnc3Oc3ccc(Cl)cc32)cc1 3.15%
Cc1ccc(-c2nc(C)c(CCNC(=O)c3ccco3)s2)cc1 0.362%
COc1ccc(N2CCN(S(=O)(=O)c3ccc4oc(=O)c5ncn(C)c5c4c3)CC2)cc1 0.858%
CCOc1ccc(NC(=O)CSc2ncc3c(n2)-c2ccc(Cl)cc2N(Cc2ccccc2)S3(=O)=O)cc1 -4.26%
COc1ccc(-c2nc3sc(CCNC(=O)c4cc(OC)c(OC)c(OC)c4)c(C)n3n2)cc1 -2.79%
COc1ccc(C)cc1NC(=O)c1oc2ccc(S(=O)(=O)N3CCCCC3)cc2c1C 2.89%
Cc1ccc(C)c(N2CCN(S(=O)(=O)c3cc(Br)cc4c3N(C(=O)C3CC3)CC4)CC2)c1 0%
COc1cc(C(=O)NCCCc2nc3ccccc3n2CC(C)C)cc(OC)c1OC -7.07%
O=C(C1CCN(S(=O)(=O)c2ccc(Br)s2)CC1)N1CCN(c2cccc(Cl)c2)CC1 0.38%
